Measurements from PubChem BioAssay AID1347428 (National Center for Advancing Translational Sciences (NCATS), 2020).
About 290 (0.32%) of roughly 91,000 compounds were called active. Inconclusive results, whose numbers are uncertain, are shown with a selection of clear calls. Calls come from the whole dose curve; as a rule, active = well fitted inhibition curve with a large enough effect; inconclusive = small, poorly fitted or top-dose-only effect; inactive = no such curve, though single readings can be large or run the other way. A potency beside an inconclusive call is a rough fit, not a confirmed value.
% is set by controls: 0 for no effect and ±100 for the full control effect; potency is the fitted concentration of half-maximal effect; tags give direction and shape of the fitted curve.
Note: nearly all actives have a fitted effect of over 25% in size.

Each compound was assayed against Single-stranded DNA cytosine deaminase (Homo sapiens) (UniProt Q9GZX7) (assay: Primary qHTS assay for inhibitors of Activation Induced Cytidine Deaminase (AID): AID signal). Settings: AID deamination FRET fluorescence, UDG-coupled, 4 h; activity change, negative = inhibition: at 115 µM (top of the series).
Sequence of UniProt Q9GZX7 (Q9GZX7 whole entry, looked up): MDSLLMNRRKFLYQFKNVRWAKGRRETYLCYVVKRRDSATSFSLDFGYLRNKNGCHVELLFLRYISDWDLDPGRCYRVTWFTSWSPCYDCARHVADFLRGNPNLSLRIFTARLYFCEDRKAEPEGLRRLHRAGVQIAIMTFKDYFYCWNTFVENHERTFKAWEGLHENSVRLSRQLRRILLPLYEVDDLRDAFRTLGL
For `CCn1c2ccccc2c2cc(CNC34CC5CC(CC(C5)C3)C4)ccc21`, the Potency was inconclusive: 50.1 µM [inhibitor, partial curve, poor fit]. With `O=C(NCc1ccc2c(c1)CCN2C(=O)c1ccccc1)Nc1cccc(C(F)(F)F)c1` the Potency was inconclusive: 28.2 µM [inhibitor, full curve, poor fit]. For `Nc1nc2c(s1)C(c1cccc(OCc3cccc(F)c3)c1)CC(=O)N2` (centres undefined), the Potency was inconclusive: 39.8 µM [inhibitor, partial curve, poor fit]. For `C/C(=N/Nc1ccccc1C(F)(F)F)c1ccc(Cl)cc1Cl`, the “activity change, negative = inhibition” value was inactive: -4.81%. With `O=[N+]([O-])c1ccc(Oc2cccc(C(F)(F)F)c2)c2ccncc12` the “activity change, negative = inhibition” value was inactive: 6.96%. In the case of `COc1c(C)cccc1C(=O)Nc1ccc(-c2nc3ccccc3s2)c(Cl)c1`, the Potency is reported as inconclusive: 100 µM [inhibitor, single point]. `Cc1c(C(=O)NCc2cccc(Br)c2)oc2ccc3c(c12)C(=O)CC(C)(C)O3` was tested, and the Potency was inconclusive: 25.1 µM [inhibitor, partial curve, poor fit]. For `COc1ccc(-c2cnnn2-c2ccc(NC(=O)c3ccccc3OC)cc2)cc1`, the Potency was inconclusive: 20 µM [inhibitor, full curve, poor fit]. In the case of `Cc1c(C(=O)NCc2cccc(Cl)c2)sc2nc3n(c(=O)c12)CCCC3`, the Potency is reported as inconclusive: 56.2 µM [inhibitor, partial curve, poor fit]. In the case of `COc1ccc(C2=C(N3CCN(c4cccc(C)c4C)CC3)c3ccccc3C2=O)cc1`, the Potency is reported as inconclusive: 39.8 µM [inhibitor, partial curve]. In the case of `Cc1ccc2oc(C(=O)N3CCC(c4nc5ccccc5s4)CC3)c(C)c2c1`, the Potency is reported as inconclusive: 39.8 µM [inhibitor, single point]. `Cc1ccc(-n2c(C)nc3c(cnn3-c3ccccc3)c2=O)cc1` was tested, and the Potency was inconclusive: 100 µM [inhibitor, partial curve, poor fit]. In the case of `O=C(CCc1ncc(-c2ccc(Cl)cc2)o1)Nc1cc(F)cc(F)c1`, the “activity change, negative = inhibition” value is reported as inactive: 4.72%. In the case of `Cc1ccc(S(=O)(=O)c2cn(Cc3ccccc3)c3cc(N4CCCC4)c(F)cc3c2=O)c(C)c1`, the Potency is reported as inconclusive: 2.82 µM [inhibitor, full curve, poor fit]. In the case of `Cc1ccc(C)c(S(=O)(=O)c2nnn3c2nc(NC2CCCC2)c2sccc23)c1`, the Potency is reported as inconclusive: 17.8 µM [inhibitor, full curve, poor fit]. For `CCOc1ccccc1Oc1ncnc2c1oc1ccccc12`, the Potency was inconclusive: 28.2 µM [inhibitor, full curve]. For `CCOc1ccc(CNc2cc(C)nc3nc(-c4cccc(C)c4)nn23)cc1OC`, the Potency was inconclusive: 79.4 µM [inhibitor, partial curve, poor fit]. With `Cc1c(-c2ccccc2)nc2ccccc2c1-c1ccccc1` the Potency was inconclusive: 25.1 µM [inhibitor, partial curve, poor fit]. In the case of `COc1ccc(C(C)=O)cc1COC(=O)CCc1ccc2c(c1)OCO2`, the “activity change, negative = inhibition” value is reported as inactive: -13.4%. For `C#CC(C)(CC)NC(=O)Cc1ccccc1` (centres undefined), the “activity change, negative = inhibition” value was inactive: 1.92%. `CCn1c(C)c(C)c2cc(C(=O)N3CCN(c4ccccc4)CC3)ccc21` was tested, and the Potency was inconclusive: 56.2 µM [inhibitor, partial curve, poor fit]. For `CCCCn1c(N)c(N(CC)C(=O)c2cc(CCC)c(C)s2)c(=O)[nH]c1=O`, the “activity change, negative = inhibition” value was inactive: -0.979%. In the case of `COc1ccc(N(CC(C)C)S(=O)(=O)c2nnc(NC(=O)c3ccco3)s2)cc1`, the Potency is reported as inconclusive: 79.4 µM [inhibitor, single point]. With `CSc1cccc(N/C=C/C(=O)c2ccc(C)c(C)c2)c1` the “activity change, negative = inhibition” value was inactive: -12.8%. In the case of `COc1cc(NC(=O)c2ccc(-c3nc(CSc4ccccc4)c(C)o3)cc2)cc(OC)c1`, the Potency is reported as inconclusive: 2.82 µM [inhibitor, full curve, poor fit]. For `COC(=O)c1ccccc1NC(=O)Cn1nnc(-c2ccc(OC)cc2)n1`, the “activity change, negative = inhibition” value was inactive: 9.81%. With `COc1ccccc1C(=O)NCC(c1ccc(N(C)C)cc1)N1CCc2ccccc21` (centres undefined) the Potency was inconclusive: 31.6 µM [inhibitor, full curve, poor fit]. `Cn1c(C=O)cc2ccccc21` was tested, and the “activity change, negative = inhibition” value was inactive: -1.11%. In the case of `O=C(NCCc1ccc(Cl)cc1)c1ccc2nc(CCc3ccccc3)oc2c1`, the Potency is reported as inconclusive: 39.8 µM [inhibitor, single point]. In the case of `CN(Cc1ccccc1)c1oc(-c2cccc(Cl)c2)nc1C#N`, the “activity change, negative = inhibition” value is reported as inactive: -20.3%. In the case of `CC(Oc1ccccc1)c1nc(-c2ccc(Br)cc2)no1` (centres undefined), the “activity change, negative = inhibition” value is reported as inactive: -5.12%. `O=C(O)COc1ccc(/C=C2/NC(=O)NC2=O)cc1Br` was tested, and the “activity change, negative = inhibition” value was inactive: 3.72%. With `COc1ccc(CCNC(=O)CN2C(=O)COc3ccc(S(=O)(=O)N4CCCC4)cc32)cc1OC` the Potency was inconclusive: 89.1 µM [inhibitor, single point]. `CC(C)(C)c1ccc(C2C(C(=O)c3cccs3)=C(O)C(=O)N2c2nncs2)cc1` (centres undefined) was tested, and the Potency was inconclusive: 50.1 µM [inhibitor, partial curve]. `CCOc1ccc(NC(=O)N2CC3CCCN3c3ccccc32)cc1` (centres undefined) was tested, and the Potency was inconclusive: 22.4 µM [inhibitor, full curve]. For `CCOC(=O)C1C(=O)C=C(c2ccc(F)cc2)CC1c1ccc(C(C)C)cc1` (centres undefined), the “activity change, negative = inhibition” value was inactive: -17.6%. `COc1ccc(NC(=O)C(c2ccccc2)N(C)C(=O)/C=C\c2ccc3c(c2)OCO3)cc1` (centres undefined) was tested, and the Potency was inconclusive: 56.2 µM [inhibitor, partial curve, poor fit]. For `COc1ccc(-c2noc(CSc3nnc(C)n3-c3ccc(F)cc3)n2)cc1`, the “activity change, negative = inhibition” value was inactive: -23.8%. With `COc1ccccc1CC(=O)Nc1ccc2nc(Nc3cccc(C(F)(F)F)c3)cc(C)c2c1` the Potency was inconclusive: 7.94 µM [inhibitor, full curve, poor fit]. `Cc1c(N(Cc2ccc(F)cc2)Cc2ccc(F)cc2)c(=O)n(-c2ccccc2)n1C` was tested, and the Potency was inconclusive: 39.8 µM [inhibitor, partial curve, poor fit]. `CCOc1ccc(NC(=O)CCc2c(C)nc3cc(-c4ccccc4OC)nn3c2C)cc1` was tested, and the Potency was inconclusive: 56.2 µM [inhibitor, partial curve, poor fit]. In the case of `O=C(NC1CCCCC1)c1ccc(CSc2nc3cccnc3n2Cc2cccc(F)c2)cc1`, the Potency is reported as inconclusive: 15.8 µM [inhibitor, full curve, poor fit]. `Cc1cccc(C(=O)n2nc(C)c(S(=O)(=O)N3CCOCC3)c2C)c1` was tested, and the Potency was inconclusive: 79.4 µM [inhibitor, partial curve, poor fit]. `COc1cccc(CN2C(=O)C3(SCC(=O)N3c3ccc(C)c(Cl)c3)c3ccccc32)c1` (centres undefined) was tested, and the Potency was inconclusive: 20 µM [inhibitor, partial curve, poor fit]. `CCOc1ccccc1NC(=O)c1c2c(nc3ccccc13)C(=O)N(C1CCCCC1)C2` was tested, and the Potency was inconclusive: 56.2 µM [inhibitor, partial curve, poor fit]. For `Cc1ccc(S(=O)(=O)CC(=O)c2ccc(Cl)c(Cl)c2)cc1`, the “activity change, negative = inhibition” value was inactive: 0.58%. In the case of `CSc1ccc(CCNc2nc(-c3ccccc3F)no2)cc1`, the Potency is reported as inconclusive: 39.8 µM [inhibitor, partial curve, poor fit]. For `O=S(=O)(c1ccc(F)cc1)N(CC(O)Cn1c2ccccc2c2ccccc21)c1ccccc1` (centres undefined), the Potency was inconclusive: 39.8 µM [inhibitor, full curve]. With `Cc1ccc(C)c(C(=O)CSc2cccc3cccnc23)c1` the Potency was active: 35.5 µM. With `COc1cc(OC)c(NC(=O)N2CCc3c([nH]c4ccccc34)C2c2ccccc2F)cc1Cl` (centres undefined) the Potency was inconclusive: 31.6 µM [inhibitor, full curve, poor fit]. In the case of `CC(C)c1ccc(NC(C)(C)c2nnnn2-c2ccc(Cl)cc2)cc1`, the Potency is reported as inconclusive: 25.1 µM [inhibitor, full curve, poor fit]. With `Cc1ccc(Cl)cc1N1CCN(C(=O)c2cnn(C)c2C2CCN(C(=O)OC(C)(C)C)CC2)CC1` the Potency was inconclusive: 89.1 µM [inhibitor, partial curve]. In the case of `O=C(NC1CC(=O)N(c2cccc(F)c2)C1)c1ccc2c(c1)OCO2` (centres undefined), the Potency is reported as inconclusive: 100 µM [inhibitor, single point]. `CC(C)(C)NC(=O)NC(=O)CSc1nc(-c2ccco2)nc2ccccc12` was tested, and the “activity change, negative = inhibition” value was inactive: -6.32%. With `COc1cccc(NC(=O)CSc2nnc(-c3cccc(OC)c3)o2)c1` the “activity change, negative = inhibition” value was inactive: -13.8%. For `COc1cccc(C2CC(=O)Nc3c2ccc(C)c3C)c1OC` (centres undefined), the Potency was inconclusive: 8.91 µM [inhibitor, full curve]. For `O=C1CCCC2=C1C(c1ccncc1)n1nc(-c3cccc(Cl)c3)nc1N2` (centres undefined), the Potency was inconclusive: 22.4 µM [inhibitor, partial curve, poor fit]. With `CC1=C(C(=O)Nc2ccccc2Cl)C(c2cccc(O)c2)n2ncnc2N1` (centres undefined) the “activity change, negative = inhibition” value was inactive: 15.5%. For `CCCC(=O)n1nc(NCc2ccccc2)nc1NCc1ccccc1`, the “activity change, negative = inhibition” value was inactive: -1.65%. For `COc1ccc(S(=O)(=O)c2c(Nc3cccc(C)c3C)sc(C(=O)c3ccccc3)c2N)cc1`, the Potency was inconclusive: 35.5 µM [inhibitor, partial curve, poor fit]. `Cc1ccc(-n2ncc(C(=O)NCCN3CCc4ccccc4C3)c2C2CCN(C(=O)OC(C)(C)C)CC2)cc1C` was tested, and the Potency was inconclusive: 56.2 µM [inhibitor, partial curve, poor fit]. For `CCCCC(=O)Nc1c(C(=O)N2CCN(c3ccccc3F)CC2)oc2ccccc12`, the Potency was inconclusive: 79.4 µM [inhibitor, partial curve, poor fit]. With `CCCCn1c(O)c(C2=Nc3ccccc3SC(c3ccc(O)cc3)C2)c(=O)[nH]c1=O` (centres undefined) the “activity change, negative = inhibition” value was inactive: -8.72%. With `CCOc1ccccc1N(C)C(=O)c1c2c(nc3ccccc13)C(=O)N(C1CCCCC1)C2` the Potency was inconclusive: 22.4 µM [inhibitor, full curve].
